Each structure is given as a SMILES string. The full ranking holds about 13,000 compounds; the median of “IFI” is about 4, and the highest 2% start at about 17. Some of the results follow.

This test is described as follows: GSK_TCMDC: Inhibition Frequency Index (IFI). The number of non-kinase HTS assays where a compound showed > 50 % inhibition, expressed as a percentage of the number of such assays in which the compound was tested (-0 is zero). The class given is functional.
On to `Cc1ccc(C)c(CN2CCC(CNC(=O)c3cc4ccc5cccnc5c4[nH]3)CC2)c1`, for which the IFI is 14.3%.

`Cc1cc(N[C@@H](CC(C)C)C(=O)Nc2ccccc2)nc(NCC2CCCCC2)n1` gave an IFI of 16.7%.

Molecule `O=C(Nc1ccc(-c2csc(-c3nc4ccccc4[nH]3)c2)cc1)Nc1ccsc1` showed an IFI of 7%.

In turn, `CCCC(=O)NC(c1cccs1)c1cc(Cl)c2cccnc2c1O` (configuration not stated) showed an IFI of 5.11%.

Consider `Cc1nc(Nc2ccc(F)cc2)nc(N2CCc3ccccc3C2C)c1CO` (configuration not stated), for which the IFI came to 3.52%.

`COc1cc2nc(N(C)CC3COc4ccccc4O3)nc(N)c2cc1OC` (configuration not stated) had an IFI of 6.08%.

In turn, `COc1cc(-n2cnc3cc(-c4ccc([N+](=O)[O-])cc4)sc3c2=O)ccc1OCCN1CCCC1` showed an IFI of 7.3%.

In the case of `CCOC(=O)C(C(C)=O)C(c1ccccc1)C(C(C)=O)C(=O)OCC` (configuration not stated), the IFI is -0%.

`O=C(Nc1ccc(-c2oc(C(=O)NCCc3cccc(Cl)c3)cc2-c2ccncc2)cc1)Nc1cccc(Cl)c1`: the IFI is 2.78%.

In turn, `N#Cc1ccc2[nH]cc(CN3CCC4(CC3)CN(CCNCc3ccccc3)C(=O)CO4)c2c1` returned an IFI of 0.85%.

In the case of `COc1ccccc1C1CC(c2ccccc2)=NN1C(=O)c1ccccc1` (configuration not stated), the IFI amounted to 2.07%.

`COc1ccc(CCn2c(=N)c(C(=O)NCc3cccnc3)cc3c(=O)n4ccccc4nc32)cc1` yielded an IFI of 0.87%.

In turn, `CC1CC(C)CN(S(=O)(=O)c2cc(C(=O)Nc3cccc([N+](=O)[O-])c3)ccc2Br)C1` (configuration not stated) registered an IFI of 2.38%.

Consider `COc1ccc(NC(=O)CCNc2ccnc(NCCc3ccc(F)cc3)n2)cc1`, for which the IFI amounted to 4.65%.

The molecule `CCOC(=O)c1cc2c(CCN3C(=O)c4ccccc4C3=O)cn(C)c2cc1-c1ccncc1` registered an IFI of 30.4%.

Turning to `Cc1[nH]c(C)c(-c2ccc(CCc3ccc(N)cc3)cc2)c(=O)c1Cl`, the IFI worked out at 1.89%.

In turn, `CCN1CCC(N(Cc2ccc(-c3ccc(C(F)(F)F)cc3)cc2)C(=O)Cn2c(SCc3ccc(F)cc3)nc(=O)c3c2CCC3)CC1` had an IFI of 12.5%.

For the molecule `Cc1ccccc1C1CCN(C2CCC(NC(=O)/C=C/c3cccc(Cl)c3Cl)CC2)CC1` (configuration not stated), the IFI came out at 11.5%.

`CCN(CC)CCN(Cc1ccc(-c2ccc(C(F)(F)F)cc2)cc1)C(=O)Cn1c(CCc2cccc(F)c2F)nc(=O)c2ccc(F)cc21`: the IFI stood at 3.03%.

As to `COc1cc2ncnc(Nc3ccc4nc(Cc5ccccc5)[nH]c4c3)c2cc1OC`, the IFI was determined as 2.21%.

The molecule `CN(C)C(CNC(=O)c1cc(-c2ccncc2)c(-c2cc3ccccc3[nH]2)o1)c1ccccc1` (configuration not stated) came in with an IFI of 7.46%.

Turning to `CO/C(=C\C=C\c1cc2cc(Cl)c(Cl)cc2[nH]1)C(=O)NCCCNCCN(C)c1ccccc1`, the IFI came out at 13%.

For `c1ccc([C@H]2CN3CCSC3=N2)cc1`, the IFI is -0%.

`CC(C)(C)c1ccc(CN2CCC(NC(=O)c3ccc(-c4cccc(F)c4)s3)CC2)cc1` showed an IFI of 12.5%.

Consider `C(=N\Nc1nccc2sc(-c3cccnc3)cc12)/c1cccnc1`, for which the IFI worked out at 4.26%.

Take `Cc1cnc(N)c(/C=C/c2cncc(C(=O)NCCc3ccc(Cl)cc3Cl)c2)c1`: the IFI turned out to be 5.56%.

Turning to `C=CCN1C(=O)C(C(C)=O)=C(O)C1c1ccccc1` (configuration not stated), the IFI is 1.52%.

Regarding `COc1cccc(NC(=O)Nc2cc(-c3ccc4[nH]ncc4c3)cc3c2CNC3=O)c1`, the IFI is -0%.

`CN1CCC(OC(=O)c2cc3cc(-c4ccccc4)ccc3n2S(=O)(=O)c2ccccc2)CC1` returned an IFI of 8.44%.

As for `CCc1cccc(-n2c(=O)c3cccnc3n2CC(=O)NC2CCCC2)c1`, the IFI worked out at 1.39%.

The molecule `CC(O)C1CCCCN1C(=O)c1cccc(-c2ccc(-c3nc4cc(C(F)(F)F)ccc4[nH]3)cc2)c1` (configuration not stated) displayed an IFI of 9.43%.

For `Cc1cccc2nc(-c3ccc(-c4ccc(CN5CCCCC5)cc4)cc3)[nH]c12`, the IFI was 7.04%.

`O=c1cc(NC[C@H]2CCC[C@@H]2NC2CCCc3c2[nH]c2ccccc32)[nH]c2ccccc12` (some centres not stated) showed an IFI of 4.29%.

`Cc1cc(N(C)C)nc(Nc2ccc(NC(=O)c3ccccc3F)cc2)n1` came in with an IFI of 5.41%.

Regarding `CC(C)(C)Cn1cc(-c2ccc(C(=O)NCCc3ccc(S(C)(=O)=O)cc3)cc2)c(N)n1.CC(C)(C)Cn1ncc(-c2ccc(C(=O)NCCc3ccc(S(C)(=O)=O)cc3)cc2)c1N`, the IFI was -0%.

Consider `CN1CCN(Cc2cccc(-c3ccc4c(Nc5cc(O)c(Cl)cc5F)ccnc4c3)c2)CC1`, for which the IFI turned out to be 4.69%.

Turning to `c1ccc(-c2n[nH]cc2Nc2ccnc3ccccc23)nc1`, the IFI was found to be 8.26%.

`Cc1cc(NCC2CCN(CC3CCCCC3)C2)nc(Nc2ccc(Br)cc2)n1` (configuration not stated) returned an IFI of 3.95%.

For `O=C(Nc1cccc(-c2ccc(-c3nc4ccccc4[nH]3)cc2)c1)c1ccncc1`, the IFI was 10.2%.

`CCCC1N=C(N)N=C(N)N1c1cccc([N+](=O)[O-])c1` (configuration not stated) returned an IFI of 0.73%.

In turn, `COc1cc2nccc(Nc3ccc(OCc4ccccc4)cc3)c2cc1OC` yielded an IFI of 5.84%.

The molecule `O=c1cc(NCCC(CNCc2ccoc2)NCc2cc(Br)cc(Br)c2)[nH]c2ccccc12` (configuration not stated) showed an IFI of 5.19%.

As to `Cc1cc(=NN=Cc2ccc(Cl)cc2)c2cc(C(F)(F)F)ccc2[nH]1`, the IFI came to 0.77%.

For `O=C(/C=C/c1ccc(Cl)c(Cl)c1)NCCCCCN1CCCN(C(=O)Nc2ccc(Cl)c(Cl)c2)CC1`, the IFI worked out at 7.89%.

`CCOc1cccc(C(=O)Nc2cccc(CN3CCCN(Cc4ccc(O)cc4)CC3)c2)c1` gave an IFI of 1.54%.

As to `Cc1cccc2nc(-c3cccc(-c4ccc(NC(=O)C(C)CN5CCOCC5)cc4)c3)[nH]c12` (configuration not stated), the IFI worked out at 2.78%.

The molecule `O=C(/C=C/c1ccc(Cl)c(Cl)c1)NCCCCCN1CCC(NC(=O)Nc2cc(Cl)nc(Cl)c2)CC1` registered an IFI of 1.59%.

Consider `Cc1cc(N2CCN(C)CC2)nc2ccc(NC(=O)Cc3cccc(C(F)(F)F)c3)cc12`, for which the IFI stood at 4.23%.

On to `COc1cc2nc(Cl)nc(Nc3ccncc3)c2cc1OC`, for which the IFI is -0%.

Consider `CCC(C)NS(=O)(=O)c1ccc2nc(Nc3ccc(C)c(Cl)c3)n(C(C)C(C)C)c2c1` (configuration not stated), for which the IFI was 5.19%.

In turn, `Cc1nc(C)c(-c2ccc(Oc3ccc(Cl)cc3)c(Cl)c2)c(O)c1Br` showed an IFI of 10.7%.

Turning to `CCC(=O)Nc1nnc(Cc2ccc(OC)c(OC)c2)s1`, the IFI was determined as 0.75%.

In turn, `O=C(Nc1cccc(-c2cccc(-c3nc4cc(F)ccc4[nH]3)c2)c1)Nc1ccc(F)c(F)c1F` yielded an IFI of 10.1%.

For the molecule `CC(C)(CNC(=O)[C@H]1CCCCN1)c1nc(-c2ccc(Cl)c(O)c2)c(-c2ccncc2)[nH]1`, the IFI is -0%.

As for `CCOC(=O)c1ccc(NC(=O)N(Cc2ccc(-c3cccc(CN4CCNCC4)c3)cc2)C2CCN(Cc3ccccc3)CC2)cc1`, the IFI is 3.7%.

In the case of `CC(=O)Nc1ccccc1OCc1cc2cc(C(=O)N3CCC(N4C(=O)OCc5ccccc54)CC3)ccc2o1`, the IFI worked out at 8.15%.

`O=C(Nc1nc(-c2ccccn2)cs1)c1ccccc1COc1ccccc1` registered an IFI of 7.06%.

Regarding `COc1ccc(CNC2Cc3ccccc3C2)cc1-c1cccc(S(=O)(=O)NCCN2CCCC2)c1`, the IFI is 13.5%.

Regarding `COc1cc(CCNc2nc(NCc3ccccc3-c3ccccc3)nc(N3CCC(N)CC3)n2)ccc1O`, the IFI is 7.58%.

The molecule `CC(C)CNCc1ccc(-c2ccc(CN(CCCN3CCN(C)CC3)C(=O)CCC3CCCC3)cc2)cc1` gave an IFI of 8.16%.

On to `CCCN1CCN(c2ccccc2NS(=O)(=O)c2ccc(C(=O)Nc3ccc(Cl)cc3)cc2)CC1`, for which the IFI came to 3.36%.

`CCNc1cc(C(=O)N[C@@H](Cc2ccccc2)[C@H](O)CNC(C)(C)Cc2ccccc2)cc(N2CCCC2=O)c1` gave an IFI of 2.84%.

`CC(=O)c1cccc(S(=O)(=O)NCCCNc2nc3cc(C)cc(C)c3cc2C#N)c1` yielded an IFI of 1.49%.

In the case of `COc1ccc(Nc2nccc(N3CCC(NS(=O)(=O)c4ccc(NC(C)=O)cc4)C3)n2)cc1` (configuration not stated), the IFI was 1.54%.

Turning to `O=C(c1ccc(-c2cccc(-c3nc4cc(C(F)(F)F)ccc4[nH]3)c2)cc1)N1CCCCC1CN1CCC(O)C1` (configuration not stated), the IFI turned out to be 7.08%.

`COc1ccc(CCN(C)CCCN2CCC(NC(=O)c3cccc4c(=O)c5ccccc5sc34)CC2)cc1OC` displayed an IFI of 21.9%.

In the case of `O=C(Nc1cccc(F)c1)c1ccc(C(=O)NC2CCN(CC3CCCCC3)CC2)cc1`, the IFI stood at 2.68%.

Regarding `CCOc1cc(CC)ccc1C1CCN(CCCCNC(=O)c2ccc(NC(=O)c3ccc(C#N)cc3)cc2)CC1`, the IFI turned out to be 8.41%.

The molecule `CCCNCc1ccc(-c2ccc(CNC3Cc4ccccc4C3)cc2)nc1` had an IFI of 5.41%.

In turn, `Cc1nc(-c2nc(NCc3ccccn3)ncc2-c2ccsc2)sc1C` registered an IFI of 4.6%.

Molecule `COc1ccc(O)c(-c2sc(N=C(N)N)nc2-c2ccccc2)c1` yielded an IFI of 8.09%.

In turn, `Cc1ccc(F)c(CN2CCC(N3CC(c4ccccc4)(c4ccccc4)OC3=O)CC2)c1Cl` returned an IFI of 2.34%.

Molecule `CCNc1cc(C(=O)N[C@@H](Cc2ccccc2)[C@H](O)CNC2(C)CCCCC2)cc(N2CCCCS2(=O)=O)c1` had an IFI of 1.43%.

`CC(C)(C)OC(=O)/C=C(\C(=O)OCc1ccc([N+](=O)[O-])cc1)c1csc(NC(c2ccccc2)(c2ccccc2)c2ccccc2)n1` came in with an IFI of 1.47%.

As to `CC(=O)Nc1ccc(CCNC(C)Cc2ccc(C(=O)Nc3ccc(CC(C)NCCc4cccc(Cl)c4)cc3)cc2)cc1` (configuration not stated), the IFI was 6.2%.

`CN1CCCN(Cc2ccc(-c3cccc(NC(=O)c4cccc(C#N)c4)c3)cc2)CC1` yielded an IFI of 5.88%.

As to `Cc1nc(-c2nc(NCCc3c(C)noc3C)ncc2-c2ccsc2)sc1C`, the IFI was determined as 2.33%.

`Cc1cc(N[C@@H](Cc2ccccc2)C(=O)NC2CCCC2)nc(NCCc2cccs2)n1` had an IFI of 4.55%.

For the molecule `CCC1CN2CCc3c([nH]c4ccccc34)[C@@H]2C[C@@H]1CC1NCCc2cc(OC)c(OC)cc21` (some centres not stated), the IFI came to 8.33%.

`O=S(=O)(Nc1cccc(F)c1CNCc1ccccn1)c1ccc(Cl)c(Cl)c1`: the IFI came to 11.1%.

Consider `COc1cc(Cc2cnc(N)nc2N)cc(OCCn2ccccc2=O)c1OC`, for which the IFI was found to be 0%.

Take `Cc1ccc(NC(=O)c2ccc3ncccc3c2)cc1OC1CCN(Cc2ccc(F)cc2)CC1`: the IFI came to 4.84%.

As for `O=C(/C=C/c1ccc(Cl)c(Cl)c1)NCCCCCN1CCCN(C(=O)Nc2ccc(Cl)c(C(F)(F)F)c2)CC1`, the IFI worked out at 8.61%.

The molecule `N=C(N)Nc1ccc(OCCCCCOc2ccc(NC(=N)N)c(Cl)c2)cc1Cl` gave an IFI of 1.48%.

In turn, `O=C(/C=C/c1ccc(Cl)cc1Cl)N1CCC(CCN2CCC(c3c[nH]c4ccccc34)CC2)CC1` yielded an IFI of 10.3%.

Molecule `CCOC(=O)c1cnc2c(OC)cc(OC)c(Cl)c2c1Nc1cccc(C)c1C` came in with an IFI of 7.09%.

Molecule `CO/C(=C\C=C\c1cc2cc(Cl)c(Cl)cc2[nH]1)C(=O)NCCCN1CCN(c2ccc(OC)cc2)CC1` had an IFI of 8.53%.

The record behind these values is ChEMBL document CHEMBL1157539, “Thousands of chemical starting points for antimalarial lead identification” (Nature, 2010).
